Results reported in paper PMC8180021.
Numbering of substitutions follows the chain as printed. No constants are given. Whether binding was seen depends on the method and setting. In cells and extracts the contact can be indirect. Some results given as binding are weak or reduced against the parent protein; the word gives no strength. For some of these results: Sequences can lack the tags named with a protein.

By UniProt entry, the sequences of proteins in these tests, tags left out.
UniProt P63101: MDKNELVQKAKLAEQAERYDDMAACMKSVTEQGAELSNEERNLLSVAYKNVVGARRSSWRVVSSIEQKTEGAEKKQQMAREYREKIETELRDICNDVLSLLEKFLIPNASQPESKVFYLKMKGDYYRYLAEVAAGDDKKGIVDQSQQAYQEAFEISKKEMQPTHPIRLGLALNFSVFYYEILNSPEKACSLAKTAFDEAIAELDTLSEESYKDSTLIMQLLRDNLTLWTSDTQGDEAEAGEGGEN
UniProt A5YKK6: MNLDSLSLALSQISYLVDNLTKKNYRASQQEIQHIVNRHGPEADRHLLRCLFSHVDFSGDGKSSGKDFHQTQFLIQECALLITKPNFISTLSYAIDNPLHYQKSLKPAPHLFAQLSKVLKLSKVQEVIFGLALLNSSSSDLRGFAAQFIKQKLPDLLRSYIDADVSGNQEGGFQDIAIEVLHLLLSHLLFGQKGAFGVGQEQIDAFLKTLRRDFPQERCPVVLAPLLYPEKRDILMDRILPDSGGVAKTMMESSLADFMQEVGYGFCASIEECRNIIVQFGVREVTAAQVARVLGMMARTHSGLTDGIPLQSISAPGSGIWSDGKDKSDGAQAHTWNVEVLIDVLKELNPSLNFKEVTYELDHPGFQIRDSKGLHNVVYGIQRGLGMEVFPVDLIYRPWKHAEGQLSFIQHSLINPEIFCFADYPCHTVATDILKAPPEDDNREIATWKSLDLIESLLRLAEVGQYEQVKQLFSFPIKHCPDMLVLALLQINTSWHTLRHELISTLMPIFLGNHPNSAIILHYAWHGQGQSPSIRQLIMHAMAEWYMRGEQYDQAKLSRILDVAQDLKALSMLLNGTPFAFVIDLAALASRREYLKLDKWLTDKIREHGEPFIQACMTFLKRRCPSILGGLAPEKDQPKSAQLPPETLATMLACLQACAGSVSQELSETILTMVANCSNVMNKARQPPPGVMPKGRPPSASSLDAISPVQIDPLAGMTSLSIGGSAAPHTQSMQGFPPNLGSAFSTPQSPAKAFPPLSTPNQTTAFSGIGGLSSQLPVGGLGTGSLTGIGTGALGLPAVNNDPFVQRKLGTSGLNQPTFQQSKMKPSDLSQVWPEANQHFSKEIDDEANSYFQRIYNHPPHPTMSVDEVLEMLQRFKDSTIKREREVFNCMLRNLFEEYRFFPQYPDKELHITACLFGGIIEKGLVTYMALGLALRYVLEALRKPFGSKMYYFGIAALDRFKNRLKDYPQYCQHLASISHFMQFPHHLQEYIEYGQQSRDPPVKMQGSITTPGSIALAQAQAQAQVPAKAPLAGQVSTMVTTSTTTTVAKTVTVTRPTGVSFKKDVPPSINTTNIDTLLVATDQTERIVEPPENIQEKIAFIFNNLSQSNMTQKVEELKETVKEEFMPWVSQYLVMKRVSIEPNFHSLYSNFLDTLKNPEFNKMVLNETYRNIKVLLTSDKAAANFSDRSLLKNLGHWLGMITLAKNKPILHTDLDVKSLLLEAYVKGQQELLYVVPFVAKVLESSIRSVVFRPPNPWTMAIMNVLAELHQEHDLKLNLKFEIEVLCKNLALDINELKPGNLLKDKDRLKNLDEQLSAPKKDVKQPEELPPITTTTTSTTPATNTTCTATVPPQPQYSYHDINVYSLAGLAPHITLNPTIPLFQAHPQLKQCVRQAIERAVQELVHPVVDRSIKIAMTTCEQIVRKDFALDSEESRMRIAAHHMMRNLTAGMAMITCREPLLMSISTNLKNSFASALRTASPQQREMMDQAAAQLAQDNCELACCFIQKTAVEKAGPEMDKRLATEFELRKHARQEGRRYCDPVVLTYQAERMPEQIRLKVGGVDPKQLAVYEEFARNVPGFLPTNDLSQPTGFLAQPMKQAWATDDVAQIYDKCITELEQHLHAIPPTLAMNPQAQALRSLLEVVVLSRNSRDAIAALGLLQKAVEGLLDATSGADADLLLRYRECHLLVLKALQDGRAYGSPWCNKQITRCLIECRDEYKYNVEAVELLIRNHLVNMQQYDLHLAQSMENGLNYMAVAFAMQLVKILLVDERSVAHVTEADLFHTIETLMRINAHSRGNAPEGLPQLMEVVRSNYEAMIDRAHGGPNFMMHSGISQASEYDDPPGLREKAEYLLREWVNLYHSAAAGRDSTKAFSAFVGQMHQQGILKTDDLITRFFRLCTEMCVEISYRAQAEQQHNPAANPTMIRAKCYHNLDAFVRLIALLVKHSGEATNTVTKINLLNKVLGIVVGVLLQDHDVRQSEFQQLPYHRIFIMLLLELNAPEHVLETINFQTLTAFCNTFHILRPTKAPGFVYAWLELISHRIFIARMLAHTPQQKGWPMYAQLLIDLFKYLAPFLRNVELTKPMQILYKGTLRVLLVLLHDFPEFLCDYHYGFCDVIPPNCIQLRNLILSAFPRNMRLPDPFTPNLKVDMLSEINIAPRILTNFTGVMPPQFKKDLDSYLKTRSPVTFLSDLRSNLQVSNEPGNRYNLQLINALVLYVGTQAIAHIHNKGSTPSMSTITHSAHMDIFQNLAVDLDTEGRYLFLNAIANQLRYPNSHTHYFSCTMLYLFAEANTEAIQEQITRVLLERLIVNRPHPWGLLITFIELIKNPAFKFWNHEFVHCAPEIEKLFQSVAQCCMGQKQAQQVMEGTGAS
UniProt O75175: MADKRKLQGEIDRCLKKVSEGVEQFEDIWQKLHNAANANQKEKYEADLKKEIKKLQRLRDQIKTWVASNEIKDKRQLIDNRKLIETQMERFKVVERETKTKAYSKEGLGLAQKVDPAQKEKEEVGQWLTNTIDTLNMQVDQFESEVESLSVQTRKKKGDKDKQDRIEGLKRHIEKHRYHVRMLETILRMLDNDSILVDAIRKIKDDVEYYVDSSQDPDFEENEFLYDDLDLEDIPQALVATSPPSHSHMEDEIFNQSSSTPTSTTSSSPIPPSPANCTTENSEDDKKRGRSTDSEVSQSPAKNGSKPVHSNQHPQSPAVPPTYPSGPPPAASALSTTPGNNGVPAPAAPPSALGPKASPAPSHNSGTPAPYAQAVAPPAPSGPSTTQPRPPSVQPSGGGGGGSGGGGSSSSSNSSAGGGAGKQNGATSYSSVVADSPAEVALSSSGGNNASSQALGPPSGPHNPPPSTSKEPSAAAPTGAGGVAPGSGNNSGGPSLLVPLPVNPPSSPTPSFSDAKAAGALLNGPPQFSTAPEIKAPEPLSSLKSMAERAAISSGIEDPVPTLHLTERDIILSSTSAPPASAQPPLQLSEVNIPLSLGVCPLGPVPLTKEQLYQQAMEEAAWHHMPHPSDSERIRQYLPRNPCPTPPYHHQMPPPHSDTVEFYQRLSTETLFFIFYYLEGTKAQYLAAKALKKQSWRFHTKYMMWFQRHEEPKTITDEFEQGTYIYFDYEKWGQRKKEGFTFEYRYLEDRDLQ

T1: Flag-TTP S316,318A (mouse) (UniProt P22893)
T1 sequence: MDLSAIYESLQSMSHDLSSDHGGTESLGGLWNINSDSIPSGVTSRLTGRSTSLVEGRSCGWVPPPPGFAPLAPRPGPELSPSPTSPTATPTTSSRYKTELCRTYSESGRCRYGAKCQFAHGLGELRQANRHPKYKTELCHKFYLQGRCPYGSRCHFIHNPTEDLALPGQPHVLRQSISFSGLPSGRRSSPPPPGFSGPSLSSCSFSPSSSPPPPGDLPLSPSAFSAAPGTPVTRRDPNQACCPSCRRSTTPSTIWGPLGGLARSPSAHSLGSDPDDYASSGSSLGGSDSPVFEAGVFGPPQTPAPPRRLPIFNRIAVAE

T2: Flag-TTP S316D (mouse) (UniProt P22893)
T2 sequence: T1 sequence with A316D, A318S

T3: Flag-TTP S318D (mouse) (UniProt P22893)
T3 sequence: T1 sequence with A316S, A318D

T4: Flag-TTP S52,178,316D (mouse) (UniProt P22893)
T4 sequence: T1 sequence with S52D, S178D, A316D, A318S

T5: Flag-TTP S52,178D (mouse) (UniProt P22893)
T5 sequence: T1 sequence with S52D, S178D, A316S, A318S

T6: Flag-TTP wild-type (tristetraprolin) (mouse) (UniProt P22893)
T6 sequence: T1 sequence with A316S, A318S

B1: Endogenous TTP of LPS-treated RAW264.7 cells (protein, UniProt P22893 1-319)
chain: T1 sequence with A316S, A318S
B2: Endogenous TTP with Ser316 phosphorylation (LPS-treated RAW264.7 cells) (protein, UniProt P22893 1-319)
chain: T1 sequence with A316S, A318S
modifications: phosphoserine at 316

How the values were obtained:
[1] = target: T1, Flag-TTP S316,318A (mouse); test: co-IP; Flag-TTP constructs transfected into HEK293T; lysate in NET buffer (50 mM Tris pH 7.5, 150 mM NaCl, 1 mM EDTA, 0.1% Triton X-100) with protease and phosphatase inhibitors; anti-Flag M2 agarose, 4 °C, 2 h; blots for endogenous proteins; some panels after negative-control, CNOT6 or CNOT7 siRNA, or with or without 1 μM okadaic acid for 1 h
Flag-TTP S316D (mouse) = target: T2, Flag-TTP S316D (mouse); test: as above
Flag-TTP S318D (mouse) = target: T3, Flag-TTP S318D (mouse); test: as above
[2] = target: T4, Flag-TTP S52,178,316D (mouse); test: as above
[3] = target: T5, Flag-TTP S52,178D (mouse); test: as above
[4] = target: T6, Flag-TTP wild-type (tristetraprolin) (mouse); test: as above
GST-14-3-3 = GST-14-3-3 (UniProt P63101); test: pull-down; 2 μg GST fusion on Glutathione-Sepharose 4B; 300 μg lysate of RAW264.7 cells treated with 100 ng/ml LPS for 0, 1, 2, 4 h; 20 mM HEPES pH 7.9, 100 mM NaCl, 2.5 mM MgCl2, 0.1 mM EDTA, 0.05% NP-40, 1% Triton X-100; 4 °C, 2 h; washes with 0.2 M NaCl; blots with anti-TTP and anti-p-S316; only the target purified

binding [1]	binding (Flag-TTP S316D (mouse))	binding (Flag-TTP S318D (mouse))	binding [2]	binding [3]	binding [4]	binding (GST-14-3-3)	Molecule
binds	binds weakly	binds	no binding	binds weakly	binds		CCR4-NOT complex subunit 1 (CNOT1) (from UniProt A5YKK6 1-2376)
binds					binds		CNOT3 (from UniProt O75175 1-753)
						binds	B1
						binds	B2
